One substance from PMC6718429 can be followed below.

The chains behind the UniProt entries cited, without tags or fusion partners.
UniProt P59268: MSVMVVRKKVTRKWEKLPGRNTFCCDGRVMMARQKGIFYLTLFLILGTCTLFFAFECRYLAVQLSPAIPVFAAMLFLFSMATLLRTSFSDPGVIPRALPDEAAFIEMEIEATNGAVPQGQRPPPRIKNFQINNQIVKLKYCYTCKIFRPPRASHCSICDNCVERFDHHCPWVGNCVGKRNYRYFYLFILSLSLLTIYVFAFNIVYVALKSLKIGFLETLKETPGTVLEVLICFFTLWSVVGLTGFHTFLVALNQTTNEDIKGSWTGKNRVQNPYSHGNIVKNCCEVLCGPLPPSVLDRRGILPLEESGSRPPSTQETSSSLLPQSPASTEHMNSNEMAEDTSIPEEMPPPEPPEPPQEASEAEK
UniProt Q8VDZ4: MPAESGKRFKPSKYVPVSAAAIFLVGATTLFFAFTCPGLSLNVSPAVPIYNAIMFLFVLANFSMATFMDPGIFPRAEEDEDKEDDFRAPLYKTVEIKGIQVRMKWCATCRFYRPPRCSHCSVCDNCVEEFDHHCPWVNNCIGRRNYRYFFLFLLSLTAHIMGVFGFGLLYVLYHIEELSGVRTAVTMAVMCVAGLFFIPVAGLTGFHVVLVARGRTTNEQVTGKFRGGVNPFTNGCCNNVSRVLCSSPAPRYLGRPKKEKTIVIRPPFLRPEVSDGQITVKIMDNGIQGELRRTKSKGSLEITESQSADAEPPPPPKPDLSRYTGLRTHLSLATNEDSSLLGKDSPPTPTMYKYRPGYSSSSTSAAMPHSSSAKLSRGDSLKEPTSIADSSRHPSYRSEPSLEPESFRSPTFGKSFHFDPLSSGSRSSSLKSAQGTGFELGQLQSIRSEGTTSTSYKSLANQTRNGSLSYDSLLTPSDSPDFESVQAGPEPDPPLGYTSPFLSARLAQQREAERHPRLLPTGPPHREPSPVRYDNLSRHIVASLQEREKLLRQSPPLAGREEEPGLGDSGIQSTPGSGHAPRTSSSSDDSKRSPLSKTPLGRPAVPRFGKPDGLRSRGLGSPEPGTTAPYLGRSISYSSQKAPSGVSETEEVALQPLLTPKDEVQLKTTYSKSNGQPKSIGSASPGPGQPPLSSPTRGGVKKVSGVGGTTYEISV
UniProt Q64264: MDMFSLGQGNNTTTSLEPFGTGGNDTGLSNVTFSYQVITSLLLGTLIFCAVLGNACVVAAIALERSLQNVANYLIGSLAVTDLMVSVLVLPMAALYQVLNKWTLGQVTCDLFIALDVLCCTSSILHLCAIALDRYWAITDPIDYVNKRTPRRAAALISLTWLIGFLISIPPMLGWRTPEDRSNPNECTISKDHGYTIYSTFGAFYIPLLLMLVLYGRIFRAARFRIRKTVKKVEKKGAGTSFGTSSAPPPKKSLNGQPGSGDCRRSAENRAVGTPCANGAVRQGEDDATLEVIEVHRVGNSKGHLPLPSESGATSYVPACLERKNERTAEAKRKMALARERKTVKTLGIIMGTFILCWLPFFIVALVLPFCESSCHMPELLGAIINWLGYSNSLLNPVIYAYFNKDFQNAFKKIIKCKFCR

Experiment [1] has as its target T1, GFP-tagged ZDHHC21 (mouse) (UniProt Q9D270).
T1 sequence: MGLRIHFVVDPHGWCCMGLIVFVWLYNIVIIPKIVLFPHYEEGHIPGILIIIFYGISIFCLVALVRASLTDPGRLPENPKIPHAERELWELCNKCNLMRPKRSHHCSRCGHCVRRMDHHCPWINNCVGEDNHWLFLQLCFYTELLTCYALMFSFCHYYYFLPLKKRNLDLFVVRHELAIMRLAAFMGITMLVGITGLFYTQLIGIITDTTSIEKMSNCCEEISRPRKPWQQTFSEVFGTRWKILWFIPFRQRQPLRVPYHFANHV
The experiment in a line: condition: only cells that expressed only one of the proteins were mixed prior to lysis ("mix" samples); co-IP; "mix" control: cells that expressed only one of the proteins (HA-5-HT1AR or GFP-tagged ZDHHC) mixed prior to lysis; IP with anti-GFP antibody, western blot with anti-HA antibody. (Immunoblotting shows a protein as a band on a membrane.)

Experiment [2] concerns the target GFP-tagged ZDHHC9 (mouse) (UniProt P59268). Described as above.
Experiment [3] has as its target GFP-tagged ZDHHC5 (mouse) (UniProt Q8VDZ4). Described as above.
The target in experiment [4] is T1, GFP-tagged ZDHHC21 (mouse). The experiment in a line: co-IP; N1E-115 cells co-expressing HA-tagged 5-HT1AR and GFP-tagged ZDHHC; IP with anti-GFP antibody, western blot with anti-HA antibody.
The target in experiment [5] is GFP-tagged ZDHHC9 (mouse) (UniProt P59268). The description is as above.
In experiment [6] the target is GFP-tagged ZDHHC5 (mouse) (UniProt Q8VDZ4). Described as above.

These are yes or no findings as the source states them, for the method shown. Binding seen in cells or lysates may run through a third protein. Some entries that bind do so weakly or less than the wild type. For part of these data: Sequences can lack the tags named with a protein.

With “HA-tagged serotonin 1A receptor (5-HT1AR) (from UniProt Q64264 1-421)”, the binding result in experiment [1] was “no binding”; in experiment [2] it was “no binding”; in experiment [3], “no binding”; in experiment [4] it was “binds”; in experiment [5], “binds”; in experiment [6], “binds”.
